The other results are listed elsewhere or left out. At the low end of the ranking the order means little.
Target: SIX1-Q177R homeodomain (UniProt Q15475)
Assay: universal protein binding microarray
Settings: Universal all-10-mer PBM (8x60K, AMADID 030236), 300 nM GST-tagged protein, Alexa Fluor 488 anti-GST; buffer, salt, pH and temperature not stated; high values mean tight binding; most listed sequences are background and not binding sites; double strand, one strand shown

Sequence	binding signal [E-score]
CCCTAGGC	-0.0494
ATACGTAG	-0.0801
GGCTAGAC	-0.00462
ATACTAGA	-0.0264
CTGAGTGC	-0.0169
GGCATAAA	0.0203
TACGCCTA	0.0943
ACTGGTGC	0.297
CCCGTGAC	0.155
AACACGCT	0.379
AAGAGAGC	-0.188
ATCACTCC	0.0332
TAGGAACA	0.115
CTTTTAGC	-0.151
TAGAAAAA	-0.114
AGCAACCT	-0.141
AGTTAGTG	0.206
AGTTAGCG	-0.152
CTATCGCC	-0.274
CCCTCACA	0.121
AGTGCCCA	-0.00924
TAATGGAA	-0.0578
ATGGAATG	-0.11
AGACGGAG	-0.0366
AAAACCCT	0.0621

Sequence	binding signal [E-score]
AAGCTTCG	-0.225
GCCGTCAC	-0.153
TAGATATA	0.0184
GGAAATAC	-0.091
TACTCATA	-0.0612
GAAGCGGA	0.029
ACGGCGTG	0.125
CGCACGGC	0.0935
CTGGGCAC	-0.0841
ACGGCTAA	-0.158
CAATATAC	-0.156
CCGGCGAG	-0.1
GAACTTCA	-0.206
AAGATGAC	-0.0139
GCCCGCGC	0.0638
AATCTTCA	-0.298
CTCAACCC	0.0176
CCCCACGA	0.153
AAAAGTCT	-0.388
AATTGCGT	-0.0867
AGTTGGGC	-0.121
AGAACATC	-0.238
CAATTCTA	-0.138
CGGGCTTA	-0.0494
ATTCGTCG	-0.0711

Sequence	binding signal [E-score]
GAAGTCGA	-0.166
AACGTTAT	-0.19
AGCACGTG	0.223
GGGAAGCA	-0.144
GGGACACC	0.478
AAACTATG	-0.083
ATCGTATA	-0.0841
CGTAAGCC	-0.0366
AAATGCCC	-0.221
CGCAGAAA	-0.216
TACGGACA	0.168
CTTGTAGA	-0.0594
CACTTCAA	0.265
AATTTCTG	-0.231
TGATTCAA	-0.0501
ATAGCGTG	0.159
TCCCACGA	-0.0661
CTAGGGCA	-0.164
TAATATTA	-0.0563
GAGGCTCC	-0.113
AAGCGTGG	-0.157
ACTCACCA	0.0861
GTCGCTAA	-0.0759
CTGGCAAC	-0.0059
TCACTCCA	-0.0137

Sequence	binding signal [E-score]
GTTTCTGA	-0.00644
ATTAATGA	0.126
AGTGACTA	-0.125
CCTCACCA	0.0115
TACAGAAA	-0.0992
GACGTCTC	-0.147
AACAAATG	-0.224
ATCATCAA	-0.264
ATCGCCTA	-0.114
ACCTCTTC	0.103
CCTAATCG	-0.0704
GGCATCCC	0.00919
ATTCTGAG	-0.245
GCTGGCTA	-0.198
ACTTGAAA	-0.127
ACAAGGAC	0.137
CCTCAGAA	-0.0407
ACCGGTAC	0.031
GGACGTCC	-0.357
AAATCTGT	-0.23
GGGGGGCA	0.0156
CGTATTGA	-0.175
GAAGTCAC	-0.0711
AGGTCAGC	0.0653
AAGTGGCT	-0.287

Sequence	binding signal [E-score]
CCCCAACC	0.0903
CTCAAATC	-0.135
CCAATGAA	-0.231
GGTGCAAC	0.272
ACTCTTTG	0.0647
AAGAGTAC	0.109
AACTGTCT	-0.0999
ATGAAGGC	-0.202
AGTCAACT	0.0111
CCCGCTGA	0.159
CCTCGCAA	-0.119
ACCCGAGG	0.136
ACGTTGGG	0.123
GATTAATA	0.0533
CTGCAATA	-0.176
GCTCGGAC	-0.15
GATGCACA	-0.0523
ACCCCCGA	0.298
AACCCACA	0.157
AAAAAGTG	0.00342
AATGCGTC	-0.251
GCACTACA	0.171
AGCAGTCA	-0.165
GACAGCCA	-0.0789
AATCATGG	-0.14

Sequence	binding signal [E-score]
CTTCCTAA	-0.171
ACGTAGTG	0.23
AACTTAAC	-0.15
TGGTGGAA	-0.0904
CAAGTGTA	0.392
GGCCGGAA	-0.098
AGTTTACG	-0.217
ATTGAAGC	-0.0733
CCCACCCG	0.194
CAATCGTA	-0.123
AAAGAGTC	-0.153
GCTACTAA	0.0858
CCAGTAGA	-0.0339
CCGGCACC	0.123
GACAACTA	-0.0873
ACATGGCC	-0.278
CCCTGCCC	0.081
TCTATCAA	-0.148
AACTGCTG	-0.116
GCAAGTTA	-0.197
ATGATAAG	0.0198
AACAATGC	0.0978
CTGCAAGA	-0.0938
ACATAGGT	-0.0202
AAAGCACG	-0.0624

Sequence	binding signal [E-score]
ACGTTATC	-0.0526
ACAGGAGA	0.0329
AAGATTCT	-0.321
ATTAAATC	-0.0752
CACCCGCA	0.271
CGTGTTCC	0.34
CAGTCATA	-0.149
CCGACAGG	-0.213
GCATTCTA	-0.17
AACCAGTG	0.183
GAGATACA	0.123
AAGCAGGC	-0.135
CTATGACC	-0.168
GCCGATCA	-0.0706
AATAGTCG	-0.0415
AATACATC	-0.0803
ACCCTGGG	0.238
GATCATGC	-0.223
ACAAGACT	-0.278
CACTGTAC	0.194
CCTGGGAA	-0.0948
AGCAGATG	-0.253
CAAACCAG	-0.177
AGGCCAGC	-0.0786
CAGGCCTC	-0.0575

Sequence	binding signal [E-score]
CCAATGGC	-0.146
AGTGCTGA	-0.152
GGCTTTGA	-0.145
CGCTGTTA	-0.254
AGAACGAG	-0.0066
AGAACCCG	0.0591
AGCTAGGC	-0.182
ATCCTCTG	-0.118
ATCTATCA	-0.26
AAAACTGG	0.0452
CAGCTTCA	-0.145
CCGCGCTA	0.0721
CGCTAGAG	-0.0588
ACAATCGC	-0.124
GTATTATA	0.0861
CTATGATA	-0.106
GCCTCAAA	-0.0712
AGATAAGC	-0.189
AACAGTGT	0.323
ACCACCTC	0.0673
AAAGAGAA	-0.223
GGACATCC	-0.23
CAAAGCCC	-0.225
AAAGGACC	-0.151
AGCGCACG	0.0778

Sequence	binding signal [E-score]
CTGATCAA	-0.11
ACATCAGA	-0.197
ACGCTCCT	-0.169
CCGTTCCA	0.075
ACCTTAAG	0.036
AGGGTTTG	0.0237
ATTTTGCG	-0.0341
CCTAGTTC	-0.101
AGTTTACA	0.192
TACGACCA	-0.0343
CTAGGTCA	-0.191
ACTACACG	0.421
ATTGGCCC	-0.172
GTAGACGA	-0.0894
ACTCAGAC	0.106
AGGTTCCG	0.0234
CTAAACAA	-0.215
GAATGTAA	-0.185
AGGCATGA	-0.224
CTGAACGC	-0.0516
AAACTCAG	-0.0875
CAAGGCCG	-0.181
AGGAACAC	0.394
CCTTCTTA	0.0255
ACCGAGGT	0.149

Sequence	binding signal [E-score]
CCAGGCAG	0.0511
GCCTTGCA	-0.297
TGATCACA	0.0144
ACTTGTGG	0.135
ACATTGGG	-0.0572
CACACTGA	0.208
ACCTAACA	0.203
GCAGAATA	-0.201
AAAGATGT	-0.245
AACCTATG	-0.182
CCGGACAA	0.0845
GTATGAAA	-0.102
CCATAGGC	-0.155
CACCATTA	0.266
ATATTTAA	-0.186
GAAACGCC	-0.00711
AGTTTCAA	-0.0833
AAAAAACA	-0.0895
CAGCGGTC	0.0891
AAGTCTGA	-0.159
AATTAACG	0.01
AGATGGGG	-0.0587
GAGCACAA	-0.125
GCTAACAC	0.417
GACCTCCC	-0.0877

Sequence	binding signal [E-score]
CCTTGGCA	-0.105
CAAGGTCC	-0.111
TAATTTCA	-0.129
CTACGGAA	-0.191
AGGGTGAG	0.00777
CATCGACA	0.0318
CACGGCAA	0.173
CTGCACTC	0.0611
CTGTTCCC	-0.198
ACTGAGGG	0.0372
CTAAACTA	-0.18
CTAGACAC	0.393
AATAGGCG	0.0175
AGCGATTC	-0.0364
AAGTTCGC	-0.351
GCAAGTGA	-0.0531
ATCATCTC	-0.168
CTATGTGA	0.149
AAAATCGG	-0.166
GATCTCAC	-0.0725
AGTACCGG	0.0769
CATGCGCC	-0.0701
TGGGGTAA	0.26
ATGAGCGA	-0.331
CAAGTGGC	-0.0444

Sequence	binding signal [E-score]
CTCGAATA	-0.198
GGGGTGTA	0.486
CGTAGGCC	-0.0178
CCCTCGAG	0.0434
CAGCCAGC	-0.179
CATTGTCC	-0.143
GCTCCTTA	-0.0512
CGCGTAAG	-0.0139
CAGCGCAA	-0.0674
GTCTGCTA	-0.11
CGAATTCC	-0.101
ATTCCCAA	-0.179
ATGGTGAA	-0.137
CGGAGGAC	-0.0744
GAGAGGCC	-0.179
AGGGGCAA	-0.0561
TATGCCGA	0.118
CCTATACG	-0.213
CGTTATCC	0.0885
CATGAGTA	-0.0622
CCGCCGTA	0.164
AGGTGTTC	0.457
CAAGACAC	0.402
GTGCAAAC	0.0503
CGTGGGAG	0.0667

Sequence	binding signal [E-score]
ACCGTGAA	-0.149
CCGATTAC	0.216
GCGGGTCA	0.116
AACCGCTA	0.0752
ACAGGACT	-0.283
CATCTGAG	0.00416
ACTGCAAA	-0.234
ACGGGGCC	-0.161
ATGCGTGC	-0.029
GGGACACA	0.232
GCGCACGA	0.0269
CCCTAACG	-0.089
AATAGTAC	0.118
AAATGGGT	0.00197
AGTGGTCA	-0.202
CCGTTTCC	-0.234
ATTAAACA	0.0131
CCTCCAAA	0.122
AACCCATA	-0.00075
ACTACCCT	0.118
CCTCGCCA	0.102
CATACCGA	-0.0175
GGATCTCA	0.0399
TCACATGA	-0.115
ATGCTGGC	-0.103

Sequence	binding signal [E-score]
CCTGACTA	-0.0565
AGGGACGA	-0.128
TCACTCGA	0.00407
AAGAAGAA	-0.137
ACACTGGT	0.426
CGATAGTA	0.0157
AGTAATTG	0.00079
CCACAAGA	-0.0154
GCACTTCC	-0.24
GCTGATAC	0.243
CACTAGGC	0.221
ACTGAAGC	-0.24
GGTGTCAC	0.491
AGTCGCCC	-0.0295
CGGCAAAC	0.0301
TATAATAA	-0.0454
ACGGGTGG	0.136
GAGTCACA	0.26
CGAATTTC	-0.188
